Measured values as given in PubChem BioAssay AID624296 (National Center for Advancing Translational Sciences (NCATS), 2012).
The campaign covered roughly 350,000 compounds. About 9,900 (2.8%) were called active. Inconclusive means that the source gave no clear call. Such entries were picked first, then a sample of the others. Calls follow the shape of the dose curve; as a rule, active = well fitted activation curve with a large enough effect; inconclusive = small, poorly fitted or top-dose-only effect; inactive = no such curve, though single readings can be large or run the other way. No potency is given beside an inconclusive call; the fits are too rough.

assay: A quantitative high throughput screen for small molecules that induce DNA re-replication in MCF 10a normal breast cells.; also: nearly all actives have a fitted effect of over 50% in size; as to activity, positive = re-replication: % of control where 0% means no effect; conditions: MCF 10A DNA re-replication, Hoechst nuclear intensity, 48 h; activity, positive = re-replication: at 46.1 µM (top of the series)
Potency is read from the fitted curve at half-maximal effect; tags tell the direction and shape of the fitted curve.

| SMILES | Potency | activity, positive = re-replication |
| --- | --- | --- |
| CC(C)(C)OC(=O)N1CCC(NC(=O)c2nc[nH]c2C(=O)NCC(=O)OCc2ccccc2)CC1 | inconclusive [activator, single point] |  |
| CCS(=O)(=O)Nc1cc(-c2nc3cccnc3s2)ccc1C | inconclusive [activator, single point] |  |
| Cc1ccc(C2=NCCn3c2c2ccccc2[n+]3[O-])cc1 |  | inactive: 13.7% |
| CCC(C)c1ccc(C(C)NC(=S)NCc2ccc(F)cc2)cc1 (stereo not drawn) | inconclusive [activator, full curve, poor fit] |  |
| C[C@H](NS(=O)(=O)c1ccccc1)C(=O)N1CCN(C(c2ccccc2)c2ccccc2)CC1 | inconclusive [activator, partial curve, poor fit] |  |
| COc1cc2c(cc1OC)CN(C(=O)c1cccc([N+](=O)[O-])c1)CC2 |  | inactive: -1.27% |
| CC(=O)N1c2ccc(Cl)cc2C2C=CCC2C1c1cccc2ccccc12 (stereo not drawn) | inconclusive [activator, partial curve, poor fit] |  |
| CCOC(=O)c1[nH]c(C)c(C(=O)Nc2ccc(Cl)cc2)c1C |  | inactive: -1.85% |
| COc1cc2nc(Nc3ccc(F)cc3)nc(N)c2cc1OC | inconclusive [activator, partial curve, poor fit] |  |
| Cc1cc(-c2nnc(SCC(=O)Nc3c(C)cccc3C)n2N)n[nH]1 |  | inactive: -0.858% |
| Oc1ccc(Br)cc1/C=N/Nc1ccccn1 | inconclusive [activator, full curve, poor fit] |  |
| COc1nc(NC(=O)c2ccc(F)cc2)nc(OC)c1-c1ccccc1 | inconclusive [activator, full curve] |  |
| O=C(c1cc2ccccc2o1)N1CCCCCC1 | inconclusive [activator, full curve] |  |
| Cc1nn(-c2ccccc2Cl)c(Cl)c1/C=C(\C#N)C(N)=O | inconclusive [activator, single point] |  |
| CCCCN1C(C)=CC(=C2C(=O)c3ccccc3C2=O)C=C1C | inconclusive [activator, single point] |  |
| Cc1oc(-c2cc3c(cc2Cl)OCO3)nc1CN1CCCC1c1ccc(F)cc1 (stereo not drawn) | inconclusive [activator, single point] |  |
| COc1ccc(-c2c(C#Cc3ccccc3)c3ccccc3n2C)cc1 | inconclusive [activator, partial curve, poor fit] |  |
| CCc1nnc(NS(=O)(=O)c2ccc(NC(=O)c3ccccc3)cc2)s1 |  | inactive: -0.235% |
| CCNCc1ccc(OCc2ccccc2F)c(OC)c1 | inconclusive [activator, full curve, poor fit] |  |
| O=C(COc1ccccc1Br)c1ccc2c(c1)OCO2 |  | inactive: -6.19% |
| O=C(COC(=O)CC1CC2CCC1C2)Nc1cc([N+](=O)[O-])ccc1F (stereo not drawn) |  | inactive: -1.54% |
| Cc1ccc(C(=O)NC(C)(COc2nonc2C)COc2nonc2C)cc1 | inconclusive [activator, partial curve, poor fit] |  |
| CC(C)Oc1ccc(N2CC(C(=O)OCC(=O)NCc3ccccc3)CC2=O)cc1 (stereo not drawn) | inconclusive [activator, single point] |  |

| SMILES | Potency | activity, positive = re-replication |
| --- | --- | --- |
| COCCSc1ncnc2c1oc1nc3c(cc12)COC(C)(C)C3 |  | inactive: 15.1% |
| O=C(NCCSCc1ccco1)Nc1ccc(Cl)cc1 | inconclusive [activator, partial curve, poor fit] |  |
| COc1ccc(-c2sc3ccccc3c2/C=C/c2ccc(OC)c(OC)c2)cc1 | inconclusive [activator, single point] |  |
| CCN1C=C(Cc2ccc(F)cc2)C2=C(C1)C(c1ccc(F)cc1)C(C#N)=C(N)O2 (stereo not drawn) | inconclusive [activator, single point] |  |
| CO/N=C/c1ccc(Sc2ccc(C)cc2)c([N+](=O)[O-])c1 | inconclusive [activator, partial curve, poor fit] |  |
| O=C(OCc1ccccc1)N1CCC2CC1c1cc(Cl)ccc12 (stereo not drawn) | inconclusive [activator, single point] |  |
| O=C(NCCOc1ccccc1)C(c1ccccc1)c1ccccc1 | inconclusive [activator, single point] |  |
| COc1cccc(CN2CCN(C(=O)c3oc4c(F)cccc4c3C)CC2=O)c1 |  | inactive: 23.6% |
| Cc1cc(C(=O)Nc2nc3ccc(Cl)cc3s2)nn1C |  | inactive: 0.0477% |
| Cc1csc(NC(=O)c2ccc(COc3ccccc3)o2)n1 | inconclusive [activator, partial curve, poor fit] |  |
| Cc1cc(C)c2c3c(sc2n1)C(c1ccccc1)C(C#N)=C(N)O3 (stereo not drawn) | active: 2.82 µM |  |
| NC12CC3CC(C1)CC(O)(C3)C2 | inconclusive [activator, single point] |  |
| COCCn1c(C)cc(/C=C(\C#N)C(=O)OCC(=O)Nc2ccc(S(N)(=O)=O)cc2)c1C | active: 16.4 µM |  |
| N#Cc1ccccc1NC(=O)c1cccc(COc2ccc(Cl)cc2Cl)c1 | inconclusive [activator, single point] |  |
| COC(=O)C(NC(=O)c1ccccc1)=C(C)C | inconclusive [activator, full curve, poor fit] |  |
| COc1cc2c(cc1OC)CN(c1ccc([N+](=O)[O-])cc1C#N)CC2 |  | inactive: 12.7% |
| CCCn1c2ccccc2c2cnn(CC(=O)NC3CCCC(C)C3C)c(=O)c21 (stereo not drawn) | inconclusive [activator, full curve, poor fit] |  |
| Cc1ccc(C2(c3noc(CN4C[C@@H](C)O[C@@H](C)C4)n3)CCCC2)cc1 | inconclusive [activator, single point] |  |
| Cc1ccc(NS(=O)(=O)c2cc(C(=O)N(C)C)ccc2C)cc1C |  | inactive: 0.63% |
| O=C(c1ccccc1)c1c[nH]c(C(=O)NNc2ccccc2)c1 | inconclusive [activator, single point] |  |
| CCOc1ccc(-n2cc(C(=O)NCCOC)c3cc(OC)c(OC)cc3c2=O)cc1 |  | inactive: -2.56% |
| Cc1cc(=O)[nH]c(NN=C2CCCCC2C)n1 (stereo not drawn) |  | inactive: 1.5% |
| CC1(C(=O)NCc2cc(F)cc(C(F)(F)F)c2)C=CC2(CCCCC2)N1C(=O)c1ccccc1 (stereo not drawn) | inconclusive [activator, full curve, poor fit] |  |

| SMILES | Potency | activity, positive = re-replication |
| --- | --- | --- |
| Cc1nc2ccccn2c1C(=O)/C=C/c1cccc([N+](=O)[O-])c1 | inconclusive [activator, single point] |  |
| Cc1ccc(Nc2nc3nonc3[nH]c2=O)cc1C | inconclusive [activator, partial curve, poor fit] |  |
| O=c1[nH]c(Sc2ccc([N+](=O)[O-])cc2[N+](=O)[O-])nc2ccccc12 | active: 6.51 µM |  |
| O=[N+]([O-])c1ccc(CN2CCN(c3ncccn3)CC2)cc1 | inconclusive [activator, single point] |  |
| CCc1nc(N2CCN(C(=O)c3ccco3)CC2)c(C#N)c2c1COC(C)(C)C2 | inconclusive [activator, partial curve, poor fit] |  |
| Cc1cccc(Nc2nc(NCc3ccco3)c3ccccc3n2)c1 | inconclusive [activator, single point] |  |
| Oc1ccc2ccccc2c1C=NC1CCCCC1 | inconclusive [activator, partial curve, poor fit] |  |
| Cc1ccc(OCC(=O)Nc2ccc(N3CCN(C(=O)c4ccco4)CC3)cc2)cc1C | inconclusive [activator, single point] |  |
| COc1ccccc1NS(=O)(=O)c1cccc(C(=O)N/N=C/c2ccc(C)o2)c1 |  | inactive: 0.387% |
| Cc1ccc(NS(=O)(=O)c2ccc(C(=O)NCc3ccc(S(N)(=O)=O)cc3)cc2)cc1 |  | inactive: -2.46% |
| COC(=O)CSc1nc(C)cc(C)n1 | inconclusive [activator, single point] |  |
| CSCC(=O)Nc1cc(C)on1 | inconclusive [activator, full curve, poor fit] |  |
| Cc1sc2ncnc(Sc3nnnn3-c3ccccc3)c2c1C | inconclusive [activator, full curve, poor fit] |  |
| CN(C(=O)c1ccc(S(=O)(=O)c2cccc(Cl)c2)c([N+](=O)[O-])c1)C1CCCCC1 | inconclusive [activator, single point] |  |
| Cc1nc(-c2ccccc2)sc1-c1nc(-c2ccncc2)ncc1S(=O)(=O)c1ccccc1 |  | inactive: 23.8% |
| COc1ccc(S(=O)(=O)NCC(c2ccc3c(c2)OCO3)N2CCN(c3ccccc3)CC2)cc1 (stereo not drawn) | inconclusive [activator, single point] |  |
| CC(=O)c1ccc(OCCCC(=O)NCCc2ccc(C(F)(F)F)cc2)cc1 |  | inactive: -8.53% |
| CN(C)C(=O)c1ccc2c(c1)C1C3CCC(C3)C1C(c1ccccc1)N2 (stereo not drawn) | inconclusive [activator, single point] |  |
| Cc1cccc(-n2c(=O)[nH]c3c(C(N)=O)nc(-c4ccccc4Cl)nc32)c1 | inconclusive [activator, single point] |  |
| CN(C)S(=O)(=O)c1cccc(NC(=S)Nc2cccc3cnccc23)c1 | active: 20.6 µM |  |
| CCN(CC)CCNC(=O)C1c2ccccc2Oc2ccccc21 | inconclusive [activator, single point] |  |
| O=C(CSc1nnc(CNC(=O)c2c(F)cccc2Cl)o1)NCc1ccccc1 | inconclusive [activator, single point] |  |
